Measurements from PubChem BioAssay AID2147 (National Center for Advancing Translational Sciences (NCATS), 2009).
Among all 230,000 compounds or so, about 3,600 (1.6%) were called active. Inconclusive means that the source gave no clear call. Such entries were picked first, then a sample of the others. Calls come from the whole dose curve; as a rule, active = well fitted inhibition curve with a large enough effect (not every such curve was filed as active); inconclusive = small, poorly fitted or top-dose-only effect, or another doubt; inactive = no such curve, though single readings can be large or run the other way. Where the call is inconclusive, the potency comes from a doubtful curve fit.
Note: nearly all actives have a fitted effect of over 50% in size.
Potency is the fitted concentration of half-maximal effect; tags give direction and shape of the fitted curve.
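Throughout, for activity change, negative = inhibition: 0% = wells with enzyme and -100% = buffer wells without enzyme.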

What follows are molecules tested against Lysine-specific demethylase 4E (Homo sapiens) (UniProt B2RXH2) (assay: qHTS Assay for Inhibitors of Human Jumonji Domain Containing 2E (JMJD2E)). Conditions: JMJD2E catalytic domain, FDH-coupled NADH fluorescence (FDH is formaldehyde dehydrogenase); series mostly up to 57.1 µM; activity change, negative = inhibition: at the top concentration.
Chain of UniProt B2RXH2 (B2RXH2 whole entry, looked up, the tested form may be a part): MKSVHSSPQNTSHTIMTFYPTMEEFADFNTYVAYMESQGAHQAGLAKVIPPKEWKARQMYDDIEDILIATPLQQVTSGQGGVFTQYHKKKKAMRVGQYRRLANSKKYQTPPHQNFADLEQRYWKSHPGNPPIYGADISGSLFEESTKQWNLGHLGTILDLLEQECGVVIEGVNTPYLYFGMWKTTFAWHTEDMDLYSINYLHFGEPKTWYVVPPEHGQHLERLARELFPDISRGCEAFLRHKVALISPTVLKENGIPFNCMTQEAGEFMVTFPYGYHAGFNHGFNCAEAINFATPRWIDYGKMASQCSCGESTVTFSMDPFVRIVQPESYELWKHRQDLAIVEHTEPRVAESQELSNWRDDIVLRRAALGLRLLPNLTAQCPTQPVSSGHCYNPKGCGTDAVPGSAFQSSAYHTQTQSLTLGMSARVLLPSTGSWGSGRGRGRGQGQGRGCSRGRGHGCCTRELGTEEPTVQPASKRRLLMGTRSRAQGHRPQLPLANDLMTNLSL
For C=CCc1cccc2cc(C(=O)NCCOC)c(=O)oc12, the Potency was inconclusive: 31.6 µM [inhibitor, partial curve].
S=c1[nH]nc(/C=C/c2ccccc2)o1 was tested, and the Potency was inconclusive: 31.6 µM [inhibitor, partial curve].
O=C(NNc1nc(-c2ccccc2)cs1)c1cccs1 was tested, and the Potency was inconclusive: 39.8 µM [inhibitor, single point].
In the case of CC(=O)N1N=C(c2ccc(C)o2)CC1c1cccc(F)c1 (centres undefined), the Potency was inconclusive: 25.1 µM [inhibitor, partial curve].
With O=C1N(Cc2cccnc2)C[C@@H]2C[C@@H](c3ccc(-c4ccccc4)cc3)N3CCC[C@@]123 the Potency was inconclusive: 31.6 µM [inhibitor, single point].
COc1ccccc1CN1CCNC(=O)C1CC(=O)NCCC1=CCCCC1 (centres undefined) was tested, and the Potency was inconclusive: 28.2 µM [inhibitor, single point].
For Cc1cccc[n+]1C1C(c2ccc([N+](=O)[O-])cc2)C(C#N)=C(C(=C=[N-])C#N)NC1(O)C1CC1 (centres undefined), the Potency was active: 12.6 µM.
In the case of O=C(O)c1cc2cc(OCc3ccccc3)ccc2[nH]1, the Potency was inconclusive: 31.6 µM [inhibitor, partial curve].
With Cc1ccc(C(=O)N/C(=C\c2ccc(-c3cccc([N+](=O)[O-])c3)o2)C(=O)NC(C)(C)C)cc1 the “activity change, negative = inhibition” value was inactive: 0.641%.
In the case of CCCCOC(=O)c1cc2c(cn1)[nH]c1ccccc12, the Potency was inconclusive: 25.1 µM [inhibitor, partial curve].
With Cc1ccc(C)c(NNC(=O)C(=O)NNc2cc(C)ccc2C)c1 the “activity change, negative = inhibition” value was inactive: -14.5%.
With O=[N+]([O-])c1cc(C2Nc3cccc4cccc(c34)N2)ccc1Cl the Potency was inconclusive: 2 µM [inhibitor, full curve, poor fit].
For N#Cc1cnn2c(-c3ccccc3)ccnc12, the Potency was inconclusive: 31.6 µM [inhibitor, partial curve].
With COc1ccc(-c2csc(NC(=O)COC(=O)C3=COCCO3)n2)cc1 the “activity change, negative = inhibition” value was inactive: -2.08%.
With CCCCOCCCNC(=S)Nc1ccc(S(=O)(=O)N2CCOCC2)cc1 the Potency was inconclusive: 39.8 µM [inhibitor, single point].
For COc1ccc(OCCn2cc(/C=N/NC(=O)c3ccncc3)c3ccccc32)cc1, the Potency was inconclusive: 39.8 µM [inhibitor, single point].
For Cc1ccc(OCCCCN2CCCCC2)c(Br)c1, the Potency was inconclusive: 39.8 µM [inhibitor, single point].
COc1cc(O)c(C(=O)/C=C/c2ccccc2)c(OC)c1 was tested, and the Potency was “inactive”.
CSc1nc2ccc(NS(=O)(=O)c3ccc4c(c3)OCCO4)cc2s1 was tested, and the “activity change, negative = inhibition” value was inactive: -1.81%.
For CCOCC(=O)Nc1cc(C(=O)OC)ccc1C(=O)OC, the Potency was inconclusive: 28.2 µM [inhibitor, partial curve].
In the case of CCS(=O)(=O)c1ccc(O)c(NC(=O)/C=C/c2ccc(Cl)cc2)c1, the Potency was inconclusive: 35.5 µM [inhibitor, single point].
Cc1ccc(-n2c(SCC(=O)NCc3ccco3)nnc2-c2cccnc2)cc1 was tested, and the “activity change, negative = inhibition” value was inactive: -4.17%.
With C=CCn1cc(-c2cccc(C(F)(F)F)c2)cc(C#N)c1=O the Potency was inconclusive: 31.6 µM [inhibitor, partial curve].
In the case of Cc1c(C)c2cc(Cl)c(O)c(CN3CCN(C)CC3)c2oc1=O, the Potency was inconclusive: 15.8 µM [inhibitor, partial curve].
For CCOC(=O)C(=NCCCN1CCOCC1)NNc1cccc(C(F)(F)F)c1, the Potency was inconclusive: 15.8 µM [inhibitor, partial curve].
For CCOC(=O)c1sc2nc3c(SCC(=O)O)cc(C(=O)c4cc(F)ccc4O)cn3c(=O)c2c1C, the Potency was inconclusive: 31.6 µM [inhibitor, single point].
COC(=O)c1ccc(NC(=S)NCCCn2ccnc2)cc1 was tested, and the “activity change, negative = inhibition” value was inactive: 3.58%.
With Nc1nc2n(n1)C(c1c(F)cccc1Cl)CC(c1ccc(F)cc1)N2 (centres undefined) the Potency was inconclusive: 39.8 µM [inhibitor, single point].
In the case of O=C(NCc1ccccn1)Nc1ccc2c(c1)OCO2, the “activity change, negative = inhibition” value was inactive: -25.8%.
For Cn1c(C(C#N)/C(=N\S(=O)(=O)c2cccs2)c2ccccc2)nc2ccccc21 (centres undefined), the Potency was inconclusive: 35.5 µM [inhibitor, single point].
Cc1ccc(S(=O)(=O)Oc2ccc(/C=C(/NC(=O)c3ccccc3)C(=O)NC(C)C(=O)O)cc2)cc1 (centres undefined) was tested, and the Potency was inconclusive: 25.1 µM [inhibitor, single point].
O=C(NC1=NCCS1)c1csc2ccccc12 was tested, and the Potency was inconclusive: 39.8 µM [inhibitor, single point].
With c1ccc(-c2ccc(-c3cn4c(n3)CCC4)cc2)cc1 the Potency was inconclusive: 28.2 µM [inhibitor, partial curve].
In the case of CCSC1=C(C#N)C(CC(C)C)C2=C(CCCC2=O)N1 (centres undefined), the Potency was inconclusive: 25.1 µM [inhibitor, partial curve].
In the case of O=c1c2ccccc2nc2n1C(CBr)CS2 (centres undefined), the Potency was inconclusive: 25.1 µM [inhibitor, single point].
With Cc1cccc(-n2cnc(C(=O)O)c2)n1 the Potency was inconclusive: 31.6 µM [inhibitor, single point].
With CC(=O)Nc1cccc(NC(=S)Nc2cccc(Cl)c2Cl)c1 the Potency was inconclusive: 35.5 µM [inhibitor, single point].
Cc1c(-c2nc(N)nc(Nc3ccc(F)cc3)n2)oc2ccccc12 was tested, and the Potency was inconclusive: 39.8 µM [inhibitor, single point].
With CCCN1CCCc2cc(CN)ccc21 the Potency was inconclusive: 22.4 µM [inhibitor, partial curve].
In the case of CCc1ccc(C2=NN(c3ccc(S(N)(=O)=O)cc3)C(c3ccc(F)cc3)C2)cc1 (centres undefined), the Potency was inconclusive: 28.2 µM [inhibitor, partial curve].
For O=c1c2oc3ccccc3c2ncn1Cc1ccc(F)cc1, the “activity change, negative = inhibition” value was inactive: 0.845%.
In the case of COc1ccc(NC(=O)N(Cc2cccs2)Cc2cc3cc4c(cc3[nH]c2=O)OCO4)cc1, the Potency was inconclusive: 28.2 µM [inhibitor, partial curve].
For COc1ccc(C2c3ccc4ccccc4c3Oc3ncn(CCCO)c(=N)c32)cc1OC (centres undefined), the Potency was inconclusive: 28.2 µM [inhibitor, single point].
COc1cc2c(cc1NC(=O)CSc1nnnn1-c1ccccc1)oc1ccccc12 was tested, and the Potency was inconclusive: 28.2 µM [inhibitor, single point].
